# This is one part of the list.
# Legend:
# HSkMC = human skeletal muscle cells; test: cytotoxicity call (relative viability < 0.9); settings: 10 µM
# HepG2 = test: cytotoxicity call (relative viability < 0.9); settings: 10 µM
# S. aureus RN4220 = test: growth inhibition call (relative growth <= 0.2); settings: 50 µM
Compound,cytotoxicity call (HSkMC),cytotoxicity call (HepG2),growth inhibition call (S. aureus RN4220)
C=CC[C@@H](CC(=O)N[C@@H](CO)Cc1ccccc1)C(=O)NC[C@H](OC(=O)[C@@H](CC=C)Cc1ccc(F)cc1)c1ccccc1,inactive,inactive,inactive
C[C@H]1CCCCO[C@@H](CN(C)Cc2ccccc2)[C@@H](C)CN([C@@H](C)CO)C(=O)c2cc(NS(=O)(=O)c3ccc(Cl)cc3)ccc2O1,inactive,active,inactive
COc1ccc(S(=O)(=O)Nc2ccc3c(c2)C(=O)N([C@H](C)CO)C[C@H](C)[C@H](CN(C)S(=O)(=O)c2ccc(Cl)cc2)OCCCC[C@H](C)O3)cc1,inactive,inactive,inactive
C[C@@H]1CCCCO[C@H](CN(C)C(=O)NC2CCCCC2)[C@H](C)CN([C@H](C)CO)C(=O)c2cc(NC(=O)Nc3cccc4ccccc34)ccc2O1,inactive,inactive,inactive
Cc1cc(C)n(C(=O)Cn2cc([N+](=O)[O-])cn2)n1,inactive,inactive,inactive
CCCNC(=O)N1C[C@]2(CCN(CC2)S(=O)(=O)c2cccc(c2)OC)c2c(n(c3cc(ccc23)OC)C)[C@H]1CO,inactive,inactive,inactive
C[C@@H]1CCCCO[C@H](CN(C)Cc2ccc(C(=O)O)cc2)[C@H](C)CN([C@@H](C)CO)C(=O)c2cc(NC(=O)C3CCCCC3)ccc2O1,inactive,inactive,inactive
